Data published in PubChem BioAssay AID463173 (ICCB-Longwood Screening Facility, Harvard Medical School, 2010).
Out of some 52,000 compounds screened, about 4,300 (8.3%) were called active. Cut-off read from the data, not from the text of the source: active = survival mostly below about 52% (no sharp cut-off); inactive = mostly above about 56%. The list shows a part of the results.

The compounds below were run on DeltatarO mutant (assay: S. aureus survival, RN4220 and DeltatarO strains – OD600, teichoic acid synthesis inhibitors, primary screen (AID 463173)). Details: S. aureus RN4220 wild type/DeltatarO growth, OD600, 18 h, stronger effect = lower value, screened at 18.75 µg/mL (by protocol).

| Compound | survival |
| --- | --- |
| CCN(C(=O)CCc1nc(-c2ccc(C)cc2)no1)c1cccc(C(F)(F)F)c1 | active: -5% |
| CCOC(=O)c1c(C)[nH]c(CCC(=O)Nc2ccccc2C(F)(F)F)c1C | inactive: 71% |
| CCc1ccc(NC(=O)CSc2nnc3[nH]c(=O)cc(-c4ccccc4)n23)cc1 | inactive: 100% |
| CCCS(=O)(=O)N1CC(=O)N(c2cccc(F)c2)C(C)(C(=O)NC2CCCCCC2)C1 (stereo not drawn) | inactive: 83% |
| COc1ccc(C(=O)Nc2ccc(S(=O)(=O)Nc3cc(C)nc(C)n3)cc2)cc1 | inactive: 56% |
| O=C(CCS(=O)(=O)c1cc2c(cc1Cl)NC(=O)CO2)NCCc1ccccc1 | inactive: 95% |
| COc1cccc2cc(C(=O)Nc3ccc(CC(=O)O)cc3)c(=O)oc12 | inactive: 66% |
| Cc1ccc(NC(=O)CSc2nc(-c3ccco3)cc(C(F)(F)F)n2)c(C)c1 | active: 63% |
| CCOc1ccc(S(=O)(=O)N2Cc3ccccc3CC2C(=O)Nc2ccc(NC(C)=O)cc2)cc1 (stereo not drawn) | inactive: 69% |
| Cc1ccn2c(NC3CCCCC3)c(C)nc2c1 | inactive: 97% |
| CCCCN1CC(c2nc3ccccc3n2CCCCOc2cc(C)cc(C)c2)CC1=O (stereo not drawn) | active: 33% |
| COc1ccc(-c2cc(C(=O)Nc3sc4c(c3C(N)=O)CCCC4)no2)cc1 | inactive: 56% |
| CCN(CC)CCNC(=O)C(=O)Nc1c2c(nn1-c1ccc(F)cc1)CSC2 | inactive: 84% |
| O=C(Nc1cccc(C(F)(F)F)c1)Nc1nnc(N2CCCCCC2)s1 | inactive: 85% |
| COCCCNC(=O)CN1C(=O)c2cccnc2Sc2ccccc21 | inactive: 84% |
| CC(=O)c1cccc(NC(=O)CN2C(=O)CCc3cc(S(=O)(=O)N4CCCCC4)ccc32)c1 | inactive: 70% |
| COc1ccccc1N1CCN(C(=O)c2cc(-c3ccc(C)c(F)c3)on2)CC1 | inactive: 66% |
| Cc1c(C(=O)OCCOc2ccccc2)[nH]c2c1C(=O)CC(c1ccc(C(C)(C)C)cc1)C2 (stereo not drawn) | inactive: 70% |
| CCn1c2c(c(=O)n3ncc(C(=O)Nc4cc(Cl)ccc4OC)c13)CN(Cc1ccc(OC)cc1)CC2 | inactive: 89% |
| O=C(NCc1ccc(Cl)cc1)C1CCN(c2nn3cc(-c4ccc(F)cc4)nc3s2)CC1 | inactive: 93% |

| Compound | survival |
| --- | --- |
| CCCNC(=O)CCC(=O)N1Cc2cccc(OC)c2Oc2ncccc21 | inactive: 102% |
| CC1CN(C(=O)NCc2ccccc2)c2cc(Cl)ccc2O1 (stereo not drawn) | inactive: 49% |
| Cc1cccc(NC(=O)CSc2nc3ccc(NC(=O)COc4ccccc4C)cc3s2)c1 | inactive: 69% |
| CCCCN1C(=O)c2ccc(Br)cc2C1=O | inactive: 102% |
| O=c1c2ccccc2ncn1-c1ccc(F)cc1 | inactive: 84% |
| Cc1ncc(CO)c2c1Oc1nc(-c3ccc(Cl)cc3)nc(SCC(=O)N3CCCCC3)c1C2 | active: 48% |
| O=C(Nc1nccs1)c1ccc(-c2ccc(Cl)cc2)o1 | active: 35% |
| Cc1cccc(CSc2nc3c(sc4ccccc43)c(=O)n2CCC(=O)NC(C)C)c1 | inactive: 103% |
| COc1ccc(Cl)cc1NC(=O)c1cc(-c2ccc3c(c2)OCO3)on1 | inactive: 60% |
| COc1ccc(NC(=O)c2nc(S(C)(=O)=O)ncc2N(Cc2ccc(C)cc2)Cc2ccco2)cc1Cl | inactive: 52% |
| COc1cccc(CNC(=O)c2cc(-c3ccc(Cl)s3)nc3ccccc23)c1 | inactive: 94% |
| CCCCc1cc(=O)oc2cc(C)c3c(C(C)(C)C)coc3c12 | inactive: 102% |
| COc1ccc(C)cc1NC(=O)N1CCN(S(=O)(=O)c2ccc3c(ccn3C)c2)CC1 | inactive: 49% |
| COc1ccc(CNC(=O)CN2C(=O)CC(c3ccc(C)c(C)c3)=Nc3ccccc32)cc1 | inactive: 77% |
| COc1ccc(C(=O)NCCn2cc(SCc3c(F)cccc3Cl)c3ccccc32)cc1 | inactive: 51% |
| Cc1ccc(-n2ncc3c(NC4CCCCCC4)ncnc32)cc1 | inactive: 66% |
| O=c1[nH]c2cc(Br)ccc2n2cccc12 | inactive: 67% |
| COc1cc(C)c(N)cc1C(C)C | inactive: 105% |
| Cc1cc(C)c(-c2n[nH]c3c2C(c2ccccc2F)N(Cc2ccco2)C3=O)c(O)c1 (stereo not drawn) | active: 2% |
| O=C(c1cnc(N2CCOCC2)c2ccccc12)N1CCN(c2ccccc2)CC1 | inactive: 95% |

| Compound | survival |
| --- | --- |
| CCCCc1nnc(SCc2cc(=O)c3cc(F)ccc3[nH]2)n1C | inactive: 83% |
| COc1ccc(-c2cc(C(F)(F)F)nc(SCCC(=O)Nc3ccc(OC)c(OC)c3)n2)cc1 | active: 40% |
| Cc1ccc(NC(=O)c2sc3nc(-c4cccs4)ccc3c2N)cc1F | inactive: 53% |
| O=C(NC12CC3CC(CC(C3)C1)C2)c1cncc(O)c1 | inactive: 90% |
| CCN(CC)C(=O)c1c(NC(=O)c2cccc(C)c2)sc2c1CCC(C)C2 (stereo not drawn) | active: -1% |
| CCN1CCC(N(Cc2ccc3c(c2)OCO3)C(=O)Nc2cc(F)ccc2F)CC1 | inactive: 81% |
| CC(C)(C)NC(=O)C1CCN(c2nc3ccccc3nc2C(F)(F)F)CC1 | inactive: 63% |
| CCC(CC)c1nnc(NC(=O)CS(=O)(=O)Cc2ccccc2)s1 | inactive: 70% |
| COc1ccc(OC)c2sc(N3CCN(C(=O)c4ccco4)CC3)nc12 | inactive: 87% |
| COc1cc(NC(=O)N2CCc3c(sc4c3CCCC4)C2c2ccccc2)cc(OC)c1OC (stereo not drawn) | inactive: 103% |
| O=C(CN1C(=O)COc2ccc(S(=O)(=O)NC3CCCC3)cc21)NCc1ccc(Cl)cc1 | inactive: 69% |
| CCOc1ccc(CNC(=O)CSc2nnc(C)c3c(C)n(-c4ccc(Cl)cc4)nc23)cc1 | inactive: 91% |
| CCN(CC)CCSc1c(C(C)C)cnc2c1c(=O)n(C)c(=O)n2C | inactive: 74% |
| CCN(CC)C(=O)c1ccc2c(c1)N(Cc1ccc(C(F)(F)F)cc1)C(=O)c1ccccc1S2 | inactive: 73% |
| CCOCCCn1c(=N)c(C(=O)NCc2cccnc2)cc2c(=O)n3ccccc3nc21 | inactive: 83% |
| Cc1nn2c(=O)cc(COC(=O)c3cccc(NC(=O)COc4ccccc4C)c3)nc2s1 | inactive: 68% |
| Cn1c(=O)c(C(=O)O)nn(-c2ccccc2)c1=O | inactive: 63% |
| Cc1ccc(NC(=O)Nc2nnc(N3CCCC3)s2)cc1C | inactive: 81% |
